Reference: PubChem BioAssay AID2676 (National Center for Advancing Translational Sciences (NCATS), 2010)
The whole screen tested about 370,000 compounds, of which about 1,100 (0.3%) were called active. Another 1% or so got no clear call; they are omitted. Calls follow the shape of the dose curve; as a rule, active = well fitted activation curve with a large enough effect; inconclusive = small, poorly fitted or top-dose-only effect; inactive = flat fitted curve, though single readings scatter. The list shows a part of the results, in another mix than the full data. Some compounds were tested as several samples or in several runs, with calls that do not always agree.

What follows are molecules tested against Relaxin receptor 1 (Homo sapiens) (UniProt Q9HBX9) (assay: qHTS Assay for Agonists of the Relaxin Receptor RXFP1). Conditions: HEK293T-RXFP1 cAMP TR-FRET, 30 min; series mostly up to 57.5 µM; activation: at the top concentration.
Description: NIH Chemical Genomics Center [NCGC] NIH Molecular Libraries Probe Production Centers Network [MLPCN] MLPCN Grant: R03 MH085705-01A1 Assay Submitter (PI): Alexander Agoulnik NCGC Assay Overview: The relaxin hormone is involved in the variety of biological functions in normal tissues and diseases. The role of relaxin is well-established in female reproduction and parturition, mammary gland and endometrial development, maintenance of myometrial quiescence during pregnancy. Relaxin signaling through its G protein-coupled receptor (GPCR) RXFP1 results in ECM remodeling through regulation of collagen deposition, cell invasiveness, proliferation and overall tissue homeostasis. […] Recombinant human relaxin (rhRlx) is currently being tested in clinical trials as a protective agent in congestive heart failure, in treating severe preeclampsia, and as an anti-fibrotic agent in systemic sclerosis. Upon relaxin binding RXFP1 activation leads to the activation of adenylate cyclase (AC) via Gs. cAMP will activate PKA, which phosphorylates many signaling proteins. Thus, detection of cAMP increase is an easy and reliable indication of relaxin receptor activation. To screen for agonists of the relaxin receptor, a HEK293T cell line stably transfected with RXFP1 was used. RXFP1 activation was assayed by changes in cAMP levels as detected with a time-resolved fluorescence energy transfer (TR-FRET) cAMP detection kit.
NCGC Assay Protocol Summary: This is a cell-based assay for cAMP second messenger response to screen for agonists of the RXFP1 receptor. The assay was conducted in the presence of a PDE4 inhibitor (Ro 20174). The cells were lysed and the cAMP levels were measured with a TR-FRET cAMP kit. Presence of cAMP in the cell lysate disrupts binding between the cryptate-labeled anti-cAMP and d2-labeled cAMP pair, leading to a decrease in the TR-FRET signal. Data were normalized to the controls for basal activity (buffer only) and 100% activity (29 nM porcine relaxin). The EC50 values were determined from concentration-response data modeled with the standard Hill equation 1536-well assay protocol for the HEK293 RXFP1 cAMP assay: (1) Add 3 ul HEK293 RXFP1 cell culture. 2000 cells/well in DMEM/F12, 10% FBS, 1x Pen/Strep (dispensed offline with MultiDrop Combi). (2) Incubate 16-24 hr at 37C, 5% CO2. (3) Add 1 ul 400uM Ro20174 in DPBS, 0.05% BSA, 0.005% Tween 20. (3) Add 23 nl compounds in DMSO solution. Final concentration was 0.5 - 58 uM. (4) Incubate 30 min at 37C, 5% CO2. (5) Add 1 ul cAMP-d2 in lysis buffer (HTRF cAMP HiRange kit, CisBio). (6) Add 1 ul anti-cAMP antibody-cryptate in lysis buffer (HTRF cAMP HiRange kit, CisBio). (7) Incubate 30 min at room temperature. (6) Detect the assay plate in a ViewLux plate reader (PerkinElmer) with Ex=320 nm, Em1=615 nm and Em2=665 nm. Keywords: relaxin, RXFP1, RXFP2, G-protein coupled receptor, cAMP, agonist, high throughput screening, MLSMR, MLSCN, NIH Roadmap, qHTS and NCGC
% is scaled to controls: 0 for no effect and ±100 for the full control effect; potency is read from the fitted curve at half-maximal effect.
Also: nearly all actives have a fitted effect of over 60% in size.

Sequence of UniProt Q9HBX9 (Q9HBX9 whole entry, looked up): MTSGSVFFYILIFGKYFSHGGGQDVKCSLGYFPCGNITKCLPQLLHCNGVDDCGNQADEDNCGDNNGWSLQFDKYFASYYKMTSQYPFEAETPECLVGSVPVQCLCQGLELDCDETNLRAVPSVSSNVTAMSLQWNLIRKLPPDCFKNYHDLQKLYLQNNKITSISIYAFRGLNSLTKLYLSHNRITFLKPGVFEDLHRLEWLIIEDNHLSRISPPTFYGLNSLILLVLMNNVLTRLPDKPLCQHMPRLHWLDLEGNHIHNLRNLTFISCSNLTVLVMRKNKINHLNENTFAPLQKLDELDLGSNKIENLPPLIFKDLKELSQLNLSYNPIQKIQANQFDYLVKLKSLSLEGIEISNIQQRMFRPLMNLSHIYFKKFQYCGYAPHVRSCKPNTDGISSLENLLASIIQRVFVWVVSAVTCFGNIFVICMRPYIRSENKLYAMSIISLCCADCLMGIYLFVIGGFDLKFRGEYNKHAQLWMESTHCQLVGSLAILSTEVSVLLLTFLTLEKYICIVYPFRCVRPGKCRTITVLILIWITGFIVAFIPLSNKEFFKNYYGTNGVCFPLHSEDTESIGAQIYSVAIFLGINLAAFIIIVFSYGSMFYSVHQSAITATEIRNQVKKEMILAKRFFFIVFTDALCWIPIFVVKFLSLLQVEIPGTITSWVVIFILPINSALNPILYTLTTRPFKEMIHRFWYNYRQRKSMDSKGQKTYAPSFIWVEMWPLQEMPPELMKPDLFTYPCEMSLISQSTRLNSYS

activation, inactive:
C=C(C)C(=O)Nc1ccc(NC(C)C)cc1 -32.7%
COc1cc(SSc2cc(OC)cc([N+](=O)[O-])c2N)c(N)c([N+](=O)[O-])c1 -44.7%
Cc1cccc(-c2nc3c4c(-c5ccccc5)c(-c5ccccc5)oc4ncn3n2)c1 -46.1%
Cc1cc(C)c(NC(=O)Cn2cnc3c(oc4ccccc43)c2=O)c(C)c1 -0.287%
CSc1c(C#N)c(N)nc2sc(C(=O)c3ccccc3)c(N)c12 -49%
CC(C)C(=O)N1CCC2(CC1)Oc1ccc(F)cc1C(=O)C21CC(c2ccc(Cl)cc2)=NO1 (stereo not drawn) 0%
Cc1ccc(NC(=O)Cn2cc(C(=O)C3CC3)c3ccccc32)c(C)c1 -2.98%
CN1C=CC(=CC=C2C=CC(=O)C=C2)C=C1 -37.5%
COc1ccc(C(=O)Nc2ccc3oc(-c4ccc5ccccc5c4)nc3c2)cc1Br -33.3%
CCOc1ccc(CCNC(=O)CCCn2c(=O)c3cccn3c3cccnc32)cc1OCC 24.4%
Nc1nc(Cl)nc2c1ncn2C1CC(O)C(CO)O1 (stereo not drawn) 12%
O=C(N/N=C/c1ccc2nccnc2c1)c1ccc(Br)cc1 -166%
Cc1cccc(C(=O)Nc2nnc(S(=O)(=O)N3CCC(C)CC3)s2)c1 -1.11%
CNS(=O)(=O)c1ccc(NC(=O)c2nc3nc(C)cc(C(F)F)n3n2)cc1 -0.0508%
CCCCNC(=O)Nc1ccc2c(c1)N(C)C(=O)c1ccccc1S2 -1.82%
CC(C)CN(c1ccccc1)S(=O)(=O)c1nnc(NC(=O)c2ccco2)s1 0.352%
COCCN1CCn2c(nc3cc(Nc4nnc(C)c5ccccc45)ccc32)C1 -39.4%
COc1ccc(OC)c(-c2cc(C(=O)NCc3ccc(Cl)cc3)no2)c1 11.7%
Cc1ccc(SCC(=O)Nc2ccc3oc(-c4ccc(F)cc4)nc3c2)cc1 -37.3%
CCn1c(=O)c2cc(C(=O)Nc3cccc(C(C)=O)c3)sc2c2ccccc21 -35.8%
Cc1ccc(-c2nc(NC(=O)CSc3cc(C)c4ccccc4n3)ns2)cc1 8.57%
CN(C)CCNC(=O)Cn1c(=O)c2cccn2c2ccc(F)cc21 0.412%
CN1c2ccc(C=O)c3c(C=O)ccc(c23)N(C)C1(C)C -66.2%
Cc1ccc(-c2cc(C(=O)NCc3cnn(C)c3)c3cc(Br)ccc3n2)cc1 23.2%
CNc1nc(SC)n(C)c(=O)c1N=O -46.3%
CC(=O)Oc1ccc2oc(-c3ccccc3)c(C(N)=O)c2c1 -31.7%
Nc1c(Cl)ncnc1N/N=C/c1ccc(O)cc1 -45.6%
Nc1ncnc2c1ncn2C1O[C@H](CO)[C@@H](O)[C@@H]1O (stereo partly drawn) -0.0761%
CCc1nonc1NC(=O)c1oc2ccc(Br)cc2c1C 12.9%
O=C(COc1ccccc1Cl)Nc1ccc2oc(-c3ccccc3F)nc2c1 -65.5%
O=C(Nc1nnc(S(=O)(=O)N2CCCCC2)s1)c1ccccc1Br -1.82%
Cc1nc(-c2cc(C#N)c(=O)[nH]c2C)cs1 -32.1%
CC(C)NC[C@H](O)c1ccc(O)c(O)c1 22.9%
Cc1ccc(-n2nc(C)c3c(C)c(CCC(=O)NC(C)c4ccccc4)c(C)nc32)cc1 (stereo not drawn) -0.768%
Cc1ccc(NC(=O)c2oc3ccc(S(=O)(=O)N4CCOCC4)cc3c2C)c(C)c1 10.9%
O=C(NNc1c2ccccc2nc2ccccc12)C(O)c1ccccc1 (stereo not drawn) -37.6%
Cc1ccc(C)c2c1cc(C)c1nnc(SCC(=O)Nc3cccc(C(=O)O)c3)n12 -46.3%
Cc1cccc(C(=O)N/N=C2\CS(=O)(=O)N(C)c3ccsc32)c1 -34.2%
CCOc1ccc(S(=O)(=O)c2c[nH]c3ccccc3c2=O)cc1 2.51%
COc1ccc(N2CC(O)=C(c3nc(-c4ccccc4)cs3)C2=N)cc1 -39.5%
CCOC(=O)C1=C(c2ccccc2)O/C(=C(\C(=O)OC)C(F)(F)F)S1 -0.116%
COc1ccc(OC)c(CNC(=O)CCn2c(=O)c3cccn3c3ccc(F)cc32)c1 -8.03%
COc1ccc2c3c([nH]c2c1)C1CC2C(CC(O)C(OC)C2CO)CN1CC3 (stereo not drawn) -38.4%
CCCCNc1ccc(C(CC(N)=O)NC(=O)c2ccccc2)cc1[N+](=O)[O-] (stereo not drawn) -33.8%
CN(CCO)S(=O)(=O)c1ccc2c(c1)C(=NN)c1cc(S(=O)(=O)N(C)CCO)ccc1-2 -30%
O=S(=O)(c1ccc2nc(N3CCN(c4ccccc4F)CC3)ccc2c1)N1CCCCC1 21.7%
COc1ccccc1N1CCN(C(=O)CSc2ncnc3c2cnn3-c2ccc(C)c(C)c2)CC1 -41.5%
COCCCn1c(=O)c2sccc2n2c(CCCC(=O)NCc3ccc(F)cc3)nnc12 24.4%
CCCCN(CC)C(=O)c1cc2c(=O)n3cccc(C)c3nc2s1 29.9%
Nc1ccc(-c2ccc(N)c(C(=O)O)c2)cc1C(=O)O -56.1%
NCc1cc2c3c(c1)CCCN3CCC2 -56.1%
Cc1ccc(CSc2ccc(-c3cccs3)nn2)cc1 13.4%
Cc1ccc(NC(=O)c2cc(-c3ccc4c(c3)OCO4)on2)cc1 0.687%
Cc1cc(C)c2oc(C(=O)NCCc3ccc(S(N)(=O)=O)cc3)cc(=O)c2c1 13.7%
CC1=NN(c2ccccc2)C(=O)C1/C=C1\NC(=S)NC1=O (stereo not drawn) -1.68%
CSc1ncc(Cl)c(C(=O)Nc2ccc(S(=O)(=O)Nc3nccc(C)n3)cc2)n1 0.187%
O=C(Nc1ccc(F)cc1F)c1cc(-c2ccc3c(c2)OCO3)on1 9.37%
Cc1ccc(-c2nc(SCC(=O)Nc3cc(C)on3)c3c(=O)n(C)c(=O)n(C)c3n2)cc1 13.1%
CC(C)CN(CC(C)C)S(=O)(=O)c1ccc(C(=O)Nc2sc3c(c2C(N)=O)CCN(C(C)C)C3)cc1 -56.2%
CCc1ccc(NC(=O)c2c(C(=O)Nc3ccccc3)sc3nc(C)cc(=O)n23)cc1 14%
COc1ccccc1NS(=O)(=O)c1cccc(NC(=O)c2[nH]c(C)c(C(C)=O)c2C)c1 -30.5%
CCOC(=O)c1c(NC(=O)c2cc(CC(C)C)on2)sc(C(C)=O)c1C 5.43%
CNCC(O)c1ccc(O)c(O)c1 (stereo not drawn) 17.8%
O=C(Nc1nc2cc3c(cc2s1)OCO3)c1ccc(N2C(=O)CCC2=O)cc1 -111%
CCCN1CCc2nc(SCC(=O)Nc3ccc(C)c(Cl)c3)[nH]c(=O)c2C1 12.9%
CC1=NN(c2ccccc2)C(=O)C1/C=C1/NC(=S)NC1=O (stereo not drawn) -75.3%
COC(=O)c1c(NC(=O)c2ccc(S(=O)(=O)N3CCCCC3)cc2)sc2c1CCN(C)C2 -43.9%
CCOC(=O)CC(NC(=O)CCc1c(C)nc2ncnn2c1C)c1ccc(OC(C)C)cc1 (stereo not drawn) 29.8%
O=C(N=c1ccn(-c2nc3ccccc3nc2NS(=O)(=O)c2ccc(Cl)cc2)cc1)c1cccs1 -31.1%
O=C(Nc1nnc(S(=O)(=O)N2CCOCC2)s1)c1ccccc1Cl -0.494%
CCN1/C(=C/c2ccc3cc(C)ccc3[n+]2C)Sc2ccc3sccc3c21 -37.9%
CCOC(=O)c1cc2c(=O)n3ccccc3nc2n(Cc2ccco2)c1=NC(=O)c1ccccc1OC 21.4%

Potency, active:
CCOC(=O)N1CCN(C(=O)CSc2ccc3nnc(-c4cccnc4)n3n2)CC1 14.1 µM
CN(C)c1ccc(-c2nc3cc(N)ccc3o2)cc1 28.2 µM
COc1cc(/C=N/NC(=O)Cn2cnc3c2c(=O)n(C)c(=O)n3C)ccc1O 15.8 µM
C=CCOc1cccc(C2/C(=C(\O)c3ccc4c(c3)OCCO4)C(=O)C(=O)N2CCN2CCOCC2)c1 (stereo not drawn) 25.1 µM
COc1ccc(CCn2c(=N)c(C(=O)NCC3CCCO3)cc3c(=O)n4cccc(C)c4nc32)cc1 (stereo not drawn) 17.8 µM
CCc1cc2cc3c(cc2nc1SCC(=O)Nc1cc(C)on1)OCO3 28.2 µM
COc1ccc(-n2c(=O)c3ccc(C(=O)NCc4ccc(C)cc4)cc3n(CC(=O)Nc3cccc(F)c3)c2=O)cc1 31.6 µM
O=[N+]([O-])c1cccc(CSc2nnc3ccccn23)c1 25.1 µM
CNC(=O)[C@H]1O[C@@H](n2cnc3c(NCc4cccc(I)c4)ncnc32)[C@H](O)[C@@H]1O 15.8 µM
Cc1cc(NC(=O)CSc2ncnc3c2cnn3-c2cccc(Cl)c2)no1 6.31 µM
CCC(=O)Nc1ccc(NC(=O)CSc2nc3c(c(=O)n(C)c(=O)n3C)n2CC)cc1 15.8 µM
CSc1cc(-c2ccc(Cl)cc2)n(Cc2ccccc2)c(=O)c1C#N 22.4 µM
Cn1c2c(c(=O)n3ncnc13)CCCC2 22.4 µM
CCOc1ccccc1OCC(=O)NNC(=O)Cn1cnc2c1c(=O)n(C)c(=O)n2C 22.4 µM
CC(=O)CSc1nc(-c2cccs2)c(C#N)c(=O)[nH]1 14.1 µM
O=C(C1=C(O)C(=O)N(CCc2ccccc2)C1c1ccncc1)c1cc2ccccc2o1 (stereo not drawn) 14.1 µM
Cc1c(C(=O)NNc2cc(=O)n(C)c(=O)n2C)cccc1[N+](=O)[O-] 14.1 µM
COc1ccc2[nH]c3c(=S)nc[nH]c3c2c1 15.8 µM
O=C(NN1C(=O)c2ccccc2NC1c1ccc([N+](=O)[O-])o1)c1ccc([N+](=O)[O-])cc1 (stereo not drawn) 2.82 µM
Cc1ccc(NC(=O)Cn2c(=O)n(-c3ccccc3)c(=O)c3ccc(C(=O)NCc4ccc5c(c4)OCO5)cc32)cc1 22.4 µM
CCOc1ccc(Cn2nnc(C(=O)NCc3ccc(OC)cc3)c2N)cc1 31.6 µM
Cc1ccc(-c2c(C(=O)Nc3ccccc3C)c(C)[nH]c(=S)c2C#N)o1 28.2 µM
COc1ccc(CN2C(=O)c3cccnc3C2=O)cc1S(=O)(=O)NCc1ccc(C)o1 15.8 µM
O=C1c2cccnc2C(=O)N1Cc1ccc(F)cc1S(=O)(=O)NCc1ccco1 25.1 µM
COc1cccc(/C=N/NC(=O)Cn2cnc3c2c(=O)n(C)c(=O)n3C)c1OC 17.8 µM
CC(=O)Nc1ccc(Br)c2ccccc12 28.2 µM
